Test results: PMC4336329 (PLoS ONE, 2015)
Hit rate of the full screen: of about 310,000 compounds, about 14,000 (4.5%) showed an effect of 50% or more. Effects have a minus sign here. The list shows a part of the results.

molecular target: human ether-à-go-go-related gene (hERG) potassium channel (human, UniProt Q12809); assay: primary screen, population patch clamp on CHO cells stably expressing hERG
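Also: peak tail current of the secondary pulse compared with the same well before compound.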

human ether-à-go-go-related gene (hERG) potassium channel, sequence (Q12809 whole entry, looked up): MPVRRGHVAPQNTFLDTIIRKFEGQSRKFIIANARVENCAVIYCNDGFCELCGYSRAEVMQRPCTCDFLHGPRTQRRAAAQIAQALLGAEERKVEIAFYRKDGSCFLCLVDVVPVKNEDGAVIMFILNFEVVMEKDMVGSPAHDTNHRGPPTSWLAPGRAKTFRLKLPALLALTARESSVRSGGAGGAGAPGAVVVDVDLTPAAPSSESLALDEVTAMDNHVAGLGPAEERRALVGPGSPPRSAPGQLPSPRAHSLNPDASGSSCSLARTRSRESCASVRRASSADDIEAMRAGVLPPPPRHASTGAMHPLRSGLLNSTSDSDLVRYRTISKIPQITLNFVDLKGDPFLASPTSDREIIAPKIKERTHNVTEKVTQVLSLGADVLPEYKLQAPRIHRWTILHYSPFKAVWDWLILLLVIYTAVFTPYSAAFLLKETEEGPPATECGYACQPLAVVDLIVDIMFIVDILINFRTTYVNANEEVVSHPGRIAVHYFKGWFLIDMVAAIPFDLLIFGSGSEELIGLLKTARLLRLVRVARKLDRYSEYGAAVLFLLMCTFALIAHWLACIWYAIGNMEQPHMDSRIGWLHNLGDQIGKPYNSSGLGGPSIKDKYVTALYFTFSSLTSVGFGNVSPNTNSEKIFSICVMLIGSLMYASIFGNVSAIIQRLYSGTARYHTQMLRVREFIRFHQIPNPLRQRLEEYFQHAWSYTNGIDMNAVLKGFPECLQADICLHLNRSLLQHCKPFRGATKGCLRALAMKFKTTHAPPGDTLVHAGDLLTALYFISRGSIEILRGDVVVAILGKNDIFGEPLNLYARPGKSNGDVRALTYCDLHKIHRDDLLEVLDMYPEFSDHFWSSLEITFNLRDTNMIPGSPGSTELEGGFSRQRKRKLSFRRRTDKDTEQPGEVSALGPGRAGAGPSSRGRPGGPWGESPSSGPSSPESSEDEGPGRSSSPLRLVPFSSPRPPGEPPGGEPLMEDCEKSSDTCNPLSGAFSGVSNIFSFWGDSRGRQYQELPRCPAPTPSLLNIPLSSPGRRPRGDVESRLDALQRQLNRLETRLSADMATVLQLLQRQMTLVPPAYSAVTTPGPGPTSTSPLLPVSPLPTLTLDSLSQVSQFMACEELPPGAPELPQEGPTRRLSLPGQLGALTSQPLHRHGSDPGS

| SMILES | hERG current change (%, negative = inhibition) at 10uM |
| --- | --- |
| CCNC(=O)c1ccccc1-c1nc(-c2ccccc2Cl)no1 | -5.83% |
| COc1ccccc1N1CCN(S(=O)(=O)c2cc3[nH]c(=O)c(=O)[nH]c3cc2C)CC1 | 12.1% |
| C[C@@H](O)[C@H]1C(=O)N2C(C(=O)O)=C(S[C@@H]3CN[C@H](C(=O)N(C)C)C3)[C@H](C)[C@H]12 | 21.1% |
| O=C(COc1ccc(Br)cc1)N1CCN(c2ncccn2)CC1 | -83.7% |
| O=C(OC(C(=O)NCC1CCCO1)c1ccccc1F)c1ccco1 (stereo not drawn) | 14.5% |
| O=C(Nc1nc2c(s1)CN(Cc1ccccc1)CC2)c1c(F)cccc1F | -8.2% |
| O=C(CN1CCN(c2ccccc2O)CC1)NC(=O)NCc1ccco1 | -2.83% |
| NC(=O)C1=C[C@@H](c2coc3ccccc3c2=O)C[C@@H](OCCCCO)O1 | 4.57% |
| CN(CC(=O)Nc1ccccc1Br)C(=O)CN1CCN(c2ccccc2Cl)CC1 | -29.6% |
| Cc1ccc(S(=O)(=O)N2CCC(C(=O)Nc3ccccc3N3CCCCC3)CC2)cc1C | -9.46% |
| Cc1c(Cl)cccc1-c1ccc(CNCc2ccccn2)o1.Cl | 8.15% |
| NS(=O)(=O)c1ccc(CCNS(=O)(=O)c2cccs2)cc1 | 8.29% |
| CC1C(Br)C(=O)NC(=O)N1Cc1ccccc1 (stereo not drawn) | 17% |
| CCOC(=O)c1c(C)[n+]([O-])c2ccc3c(non3O)c12 | 21.6% |
| O=S(=O)(Nc1c(F)cccc1F)c1ccc2c(c1)OCCO2 | 9.82% |
| CC(=O)c1ccc(NC(=O)c2sc3nc4n(c(=O)c3c2C)CCCCC4)cc1 | -0.301% |
| CCOC(=O)Cc1c(C)nc(SC)[nH]c1=O | 17.8% |
| COc1cc(C(C)=O)ccc1OCCCN1CCC(Cc2ccccc2)CC1.O=C(O)C(=O)O | -77.9% |
| Cc1ccc2c(c1)C1NC(=S)NC(C)(O2)C1C(=O)Nc1ccc(Cl)cc1 (stereo not drawn) | 8.39% |

| SMILES | hERG current change (%, negative = inhibition) at 10uM |
| --- | --- |
| O=c1[nH]cc(S(=O)(=O)N2CCN(c3cccc(Cl)c3)CC2)c(=O)[nH]1 | -17.3% |
| O=C(CN(C(=O)CCC(=O)Nc1ccccn1)c1cccc(F)c1)NCc1ccc(F)cc1 | -4.26% |
| O=C(NCc1ccccc1Cl)c1cccc(C(F)(F)F)c1 | -9.11% |
| Cc1csc2c(N3CCN(C(=O)c4ccc(C(C)(C)C)cc4)CC3)ncnc12 | -33% |
| Cn1c(C(=O)NCc2ccccn2)cc2c(=O)n3ccccc3nc21 | -1.42% |
| Cc1cc(=O)oc2cc(OC(=O)C3CCN(C(=O)c4ccc(F)cc4)CC3)ccc12 | 3.43% |
| CCOC(=O)c1cc(-c2ccc(C)c([N+](=O)[O-])c2)nc2c1c(=O)n(C)c(=O)n2C | -6.2% |
| COC(=O)C1CSc2[nH]c(=O)sc2C1c1ccc(OC)c(OC)c1 (stereo not drawn) | 0.0419% |
| COc1ccc(C(=O)O/N=C(\C)c2cnccn2)cc1 | 8% |
| Oc1cc2ccccc2cc1-c1nnc2n1-c1ccccc1SC2 | -8.27% |
| CCOC(=O)C1CCN(c2c(NCCN(CC)c3ccccc3)c(=O)c2=O)CC1 | -14.4% |
| c1ccc(-c2cnnc(N3CCOCC3)n2)cc1 | -4.16% |
| CNc1nc(N)c([N+](=O)[O-])c(Nc2cccc(F)c2)n1 | 16.3% |
| O=C(c1cc2c([nH]c1=O)CCCC2)N1CCc2c([nH]c3ccccc23)C1c1ccccc1F (stereo not drawn) | -4.1% |
| O=C1C(Cl)=C(NCCN2CCCCC2)C(=O)c2ccccc21 | -45.3% |
| CCCCCCC(=O)NNC(=O)CC(=O)Nc1ccccc1C(=O)O | 24.4% |
| O=C(NC(=S)NCCC1=CCCCC1)c1cncc(Br)c1 | 17.4% |
| CCC(=O)Nc1ccc(Nc2nc(Cl)nc(Nc3ccc(NC(=O)CC)cc3)n2)cc1 | 14.8% |
| CC(c1ccccc1)C(NC(=O)OCC1c2ccccc2-c2ccccc21)C(=O)O (stereo not drawn) | 7.8% |

| SMILES | hERG current change (%, negative = inhibition) at 10uM |
| --- | --- |
| Cc1ccc(N2C(N)=C(C#N)C(c3cccs3)C3=C2CC(C)(C)CC3=O)cc1 (stereo not drawn) | -21.3% |
| Cc1cc(C)cc(OCC(O)CN2CCN(C(=O)c3ccco3)CC2)c1 (stereo not drawn) | -43.7% |
| O=C(NCc1ccc2c(c1)OCO2)C1CCCN1C(=O)Nc1ccccc1 (stereo not drawn) | -31.6% |
| COc1cc(CN2CC(C)OC(C)C2)cc(OC)c1 (stereo not drawn) | -10.8% |
| CN(C)CC1CSCCC1(O)c1ccccc1.Cl (stereo not drawn) | 2.12% |
| Cc1cc(C)c2nc(C)cc(Nc3ccc(C(=O)N4CCOCC4)cc3)c2c1 | -43.8% |
| CCOc1ccc(-c2cccc(NS(=O)(=O)c3cc([N+](=O)[O-])ccc3C)c2)nn1 | -25% |
| O=S(=O)(Cc1ccccc1)Nn1cnnc1 | 11.4% |
| Clc1ccc(/C=N/Nc2ccccn2)cc1 | 14.7% |
| CN(C(=O)c1ccc2c(=O)n3c(nc2c1)CCCCC3)c1ccccc1 | 9.53% |
| O=C(Nc1ncn[nH]1)c1ccc([N+](=O)[O-])cc1[N+](=O)[O-] | 18.2% |
| CCCCCCc1c(O)c2ccccc2[nH]c1=O | -4.9% |
| CCN1CCN(CCCNC(=O)c2ccc3c(Cl)c4c(nc3c2)CCCC4)CC1 | -46.8% |
| Cc1ccccc1N1CC(C(=O)Nc2ccc(S(=O)(=O)N3CCOCC3)cc2)CC1=O (stereo not drawn) | -2.57% |
| CC1CN=C(N(C(=O)Nc2ccccc2)c2ccc(S(=O)(=O)N3CCOCC3)cc2)S1 (stereo not drawn) | -15.8% |
| CC(C)SCc1nc2ccccc2[nH]1 | -3.73% |
| CCCS(=O)(=O)N1CCC(C(=O)NCc2ccccc2Cl)CC1 | 0.853% |
| CCc1c(C)nc2nc(NC(C)=O)[nH]n2c1=O | 15% |
| O=C(Cc1cccs1)NNC(=S)NC(=O)c1ccc(F)c(F)c1 | 12.2% |
